Assay [1] concerns the target T1, UBIQUITIN-SPECIFIC PROTEASE 13 (UBP13), full length, yeast two-hybrid fusion (Arabidopsis thaliana) (UniProt Q84WU2).
T1 sequence: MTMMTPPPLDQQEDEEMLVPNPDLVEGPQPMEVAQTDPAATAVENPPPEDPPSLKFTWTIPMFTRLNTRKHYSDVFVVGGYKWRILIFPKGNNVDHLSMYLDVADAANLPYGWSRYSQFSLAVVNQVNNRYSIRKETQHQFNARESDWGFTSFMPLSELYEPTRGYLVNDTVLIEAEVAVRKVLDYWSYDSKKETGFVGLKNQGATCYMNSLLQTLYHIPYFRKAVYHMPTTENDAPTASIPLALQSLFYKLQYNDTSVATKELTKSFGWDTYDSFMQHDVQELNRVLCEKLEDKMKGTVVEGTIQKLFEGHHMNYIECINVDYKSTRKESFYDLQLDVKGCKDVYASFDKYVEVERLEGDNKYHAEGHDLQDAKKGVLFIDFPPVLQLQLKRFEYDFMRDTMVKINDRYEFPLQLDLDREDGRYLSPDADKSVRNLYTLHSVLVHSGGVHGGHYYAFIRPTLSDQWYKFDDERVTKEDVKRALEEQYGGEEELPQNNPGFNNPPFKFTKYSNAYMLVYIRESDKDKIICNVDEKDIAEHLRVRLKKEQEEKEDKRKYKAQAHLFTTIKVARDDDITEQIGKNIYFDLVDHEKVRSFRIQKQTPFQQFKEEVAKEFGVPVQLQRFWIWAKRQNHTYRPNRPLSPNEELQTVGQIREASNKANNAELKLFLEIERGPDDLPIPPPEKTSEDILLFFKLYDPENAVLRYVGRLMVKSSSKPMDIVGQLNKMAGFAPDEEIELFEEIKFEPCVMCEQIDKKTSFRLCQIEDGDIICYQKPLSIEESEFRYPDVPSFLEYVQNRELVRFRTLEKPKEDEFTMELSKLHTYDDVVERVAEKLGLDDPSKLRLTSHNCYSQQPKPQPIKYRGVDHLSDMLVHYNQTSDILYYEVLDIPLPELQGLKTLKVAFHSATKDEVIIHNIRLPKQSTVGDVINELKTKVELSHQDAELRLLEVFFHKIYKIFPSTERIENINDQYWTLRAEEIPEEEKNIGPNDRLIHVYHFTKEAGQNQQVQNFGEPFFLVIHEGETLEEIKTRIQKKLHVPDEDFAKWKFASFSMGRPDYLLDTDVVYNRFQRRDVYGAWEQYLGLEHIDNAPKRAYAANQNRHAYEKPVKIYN
Kind of assay: two-hybrid; yeast two-hybrid, GAL4-BD and GAL4-AD fusions; growth on SD-LW for selection and on SD-LWHA to test for interactions.

The chains behind the UniProt entries cited, without tags or fusion partners.
UniProt Q9FTA2: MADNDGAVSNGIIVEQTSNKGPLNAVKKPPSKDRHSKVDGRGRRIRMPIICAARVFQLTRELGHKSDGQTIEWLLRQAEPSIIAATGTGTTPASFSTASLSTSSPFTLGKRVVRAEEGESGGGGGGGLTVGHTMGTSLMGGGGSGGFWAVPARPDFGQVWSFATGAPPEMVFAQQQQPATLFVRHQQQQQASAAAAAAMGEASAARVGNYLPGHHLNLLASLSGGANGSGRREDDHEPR
UniProt Q94BT6: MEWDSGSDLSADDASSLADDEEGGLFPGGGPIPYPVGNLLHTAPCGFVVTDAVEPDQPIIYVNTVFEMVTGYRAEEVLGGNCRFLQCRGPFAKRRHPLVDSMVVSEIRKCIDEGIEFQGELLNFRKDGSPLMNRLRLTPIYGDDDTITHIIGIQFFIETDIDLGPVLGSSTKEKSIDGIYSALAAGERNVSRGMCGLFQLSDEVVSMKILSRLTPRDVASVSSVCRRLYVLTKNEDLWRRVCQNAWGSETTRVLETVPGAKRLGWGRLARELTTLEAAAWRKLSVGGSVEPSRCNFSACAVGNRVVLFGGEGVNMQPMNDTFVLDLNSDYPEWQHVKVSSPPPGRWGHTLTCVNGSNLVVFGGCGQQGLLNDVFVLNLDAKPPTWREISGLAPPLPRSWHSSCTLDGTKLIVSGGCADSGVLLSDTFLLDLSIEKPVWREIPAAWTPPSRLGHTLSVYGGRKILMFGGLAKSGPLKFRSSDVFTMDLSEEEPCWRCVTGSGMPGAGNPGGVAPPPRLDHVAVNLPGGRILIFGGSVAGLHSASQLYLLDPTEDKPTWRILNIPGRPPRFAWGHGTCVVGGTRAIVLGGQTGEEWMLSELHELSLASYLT

For assay [2], the target named is T2, UBIQUITIN-SPECIFIC PROTEASE 12 (UBP12), full length, yeast two-hybrid fusion (Arabidopsis thaliana) (UniProt Q9FPT1).
T2 sequence: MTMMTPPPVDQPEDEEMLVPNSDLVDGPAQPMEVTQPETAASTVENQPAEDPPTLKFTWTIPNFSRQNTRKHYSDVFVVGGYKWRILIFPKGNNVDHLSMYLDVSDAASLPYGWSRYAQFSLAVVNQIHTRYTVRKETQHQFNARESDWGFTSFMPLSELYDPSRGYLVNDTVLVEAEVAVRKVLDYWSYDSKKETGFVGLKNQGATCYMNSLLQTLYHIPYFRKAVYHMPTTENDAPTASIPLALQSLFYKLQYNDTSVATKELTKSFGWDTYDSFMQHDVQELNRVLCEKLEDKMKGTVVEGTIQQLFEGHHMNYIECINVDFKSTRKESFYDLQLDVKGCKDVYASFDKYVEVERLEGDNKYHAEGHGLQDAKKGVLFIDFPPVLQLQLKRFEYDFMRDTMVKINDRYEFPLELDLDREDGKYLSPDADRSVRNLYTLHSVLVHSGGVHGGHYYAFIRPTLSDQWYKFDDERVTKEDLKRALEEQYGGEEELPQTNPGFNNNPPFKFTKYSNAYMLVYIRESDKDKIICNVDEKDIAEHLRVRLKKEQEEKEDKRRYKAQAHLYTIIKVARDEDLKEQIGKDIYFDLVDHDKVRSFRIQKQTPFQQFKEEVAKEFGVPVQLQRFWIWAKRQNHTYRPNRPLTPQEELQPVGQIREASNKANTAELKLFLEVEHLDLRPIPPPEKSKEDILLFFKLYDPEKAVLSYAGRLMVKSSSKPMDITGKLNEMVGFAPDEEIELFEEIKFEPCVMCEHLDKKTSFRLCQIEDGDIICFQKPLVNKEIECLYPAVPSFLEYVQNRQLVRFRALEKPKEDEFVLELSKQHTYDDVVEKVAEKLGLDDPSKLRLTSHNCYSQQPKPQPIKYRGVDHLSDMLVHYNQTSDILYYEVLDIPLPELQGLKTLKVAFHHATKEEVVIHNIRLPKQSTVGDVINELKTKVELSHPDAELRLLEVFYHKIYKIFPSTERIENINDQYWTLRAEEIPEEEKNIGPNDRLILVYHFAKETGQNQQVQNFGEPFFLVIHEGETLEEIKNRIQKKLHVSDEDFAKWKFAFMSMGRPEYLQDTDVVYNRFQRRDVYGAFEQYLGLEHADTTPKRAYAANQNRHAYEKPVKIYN
The assay is described as above.

Assay [3] concerns the target T3, FLAG-UBP12 (Arabidopsis thaliana) (UniProt Q9FPT1).
T3 sequence: T2 sequence
The experiment in a line: co-IP; anti-FLAG M2 magnetic beads on extracts of N. benthamiana leaves co-expressing FLAG-UBP12 or FLAG-UBP13 with HA-GI, with or without Myc-ZTL; western blotting. (A western blot detects proteins with antibodies after separation by electrophoresis.)

The target in assay [4] is T4, FLAG-UBP13 (Arabidopsis thaliana) (UniProt Q84WU2).
T4 sequence: T1 sequence
The description is as above.

Assay [5] has as its target T5, UBP13 fused to a Venus (YFP) fragment for BiFC (Arabidopsis thaliana) (UniProt Q84WU2).
T5 sequence: T1 sequence
The experiment in a line: split reporter; BiFC with N- and C-terminal halves of Venus (YFP) in Arabidopsis (Col-0) protoplasts, imaged 14-18 h after transfection in low light.

Assay [6] has as its target T6, UBP12 fused to a Venus (YFP) fragment for BiFC (Arabidopsis thaliana) (UniProt Q9FPT1).
T6 sequence: T2 sequence
Described as above.

These are yes or no findings as the source states them, for the method shown. For some of these results: In cells and extracts the contact can be indirect. Some results given as binding are weak or reduced against the parent protein; the word gives no strength. Tags and fused reporters may be left off the sequences shown.

For the molecule “CCA1 HIKING EXPEDITION (CHE), yeast two-hybrid fusion (from UniProt Q9FTA2 1-239)”, the binding entry in assay [1] and in assay [2] was “no binding” each time.

For the molecule “ZEITLUPE (ZTL), full length, yeast two-hybrid fusion (from UniProt Q94BT6 1-609)”, the binding entry in assay [1] and in assay [2] was “no binding” in each case.

B1: GIGANTEA (GI), yeast two-hybrid fusion (protein, UniProt Q9SQI2 1-1173)
chain: MASSSSSERWIDGLQFSSLLWPPPRDPQQHKDQVVAYVEYFGQFTSEQFPDDIAELVRHQYPSTEKRLLDDVLAMFVLHHPEHGHAVILPIISCLIDGSLVYSKEAHPFASFISLVCPSSENDYSEQWALACGEILRILTHYNRPIYKTEQQNGDTERNCLSKATTSGSPTSEPKAGSPTQHERKPLRPLSPWISDILLAAPLGIRSDYFRWCSGVMGKYAAGELKPPTIASRGSGKHPQLMPSTPRWAVANGAGVILSVCDDEVARYETATLTAVAVPALLLPPPTTSLDEHLVAGLPALEPYARLFHRYYAIATPSATQRLLLGLLEAPPSWAPDALDAAVQLVELLRAAEDYASGVRLPRNWMHLHFLRAIGIAMSMRAGVAADAAAALLFRILSQPALLFPPLSQVEGVEIQHAPIGGYSSNYRKQIEVPAAEATIEATAQGIASMLCAHGPEVEWRICTIWEAAYGLIPLNSSAVDLPEIIVATPLQPPILSWNLYIPLLKVLEYLPRGSPSEACLMKIFVATVETILSRTFPPESSRELTRKARSSFTTRSATKNLAMSELRAMVHALFLESCAGVELASRLLFVVLTVCVSHEAQSSGSKRPRSEYASTTENIEANQPVSNNQTANRKSRNVKGQGPVAAFDSYVLAAVCALACEVQLYPMISGGGNFSNSAVAGTITKPVKINGSSKEYGAGIDSAISHTRRILAILEALFSLKPSSVGTPWSYSSSEIVAAAMVAAHISELFRRSKALTHALSGLMRCKWDKEIHKRASSLYNLIDVHSKVVASIVDKAEPLEAYLKNTPVQKDSVTCLNWKQENTCASTTCFDTAVTSASRTEMNPRGNHKYARHSDEGSGRPSEKGIKDFLLDASDLANFLTADRLAGFYCGTQKLLRSVLAEKPELSFSVVSLLWHKLIAAPEIQPTAESTSAQQGWRQVVDALCNVVSATPAKAAAAVVLQAERELQPWIAKDDEEGQKMWKINQRIVKVLVELMRNHDRPESLVILASASDLLLRATDGMLVDGEACTLPQLELLEATARAIQPVLAWGPSGLAVVDGLSNLLKCRLPATIRCLSHPSAHVRALSTSVLRDIMNQSSIPIKVTPKLPTTEKNGMNSPSYRFFNAASIDWKADIQNCLNWEAHSLLSTTMPTQFLDTAARELGCTISLSQ
As for B1, the binding entry in assay [1] and in assay [2] was “binds” in each case.

B2: HA-GI (protein, UniProt Q9SQI2 1-1173)
chain: B1 chain
In the case of B2, the binding result in assay [3] and in assay [4] was “binds” in each case.

B3: GI fused to a Venus (YFP) fragment for BiFC (protein, UniProt Q9SQI2 1-1173)
chain: B1 chain
In the case of B3, the binding entry in assay [5] and in assay [6] was “binds” each time.
